Experimental data reported in PubChem BioAssay AID1460 (National Center for Advancing Translational Sciences (NCATS), 2008).
The whole screen tested about 270,000 compounds, of which about 5,800 (2.1%) were called active. The inconclusive results got no clear call from the source; some entries with a clear call stand among them for comparison. The call rests on the fitted dose curve; in most records, active means well fitted inhibition curve with a large enough effect; inconclusive means small, poorly fitted or top-dose-only effect; inactive means flat fitted curve, though single readings scatter. A potency beside an inconclusive call is a rough fit, not a confirmed value.

Target: Microtubule-associated protein tau (Homo sapiens) (UniProt P10636)
Assay: qHTS for Inhibitors of Tau Fibril Formation, Thioflavin T Binding; further: nearly all actives have a fitted effect of over 55% in size
Details: recombinant tau K18 P301L (four-repeat tau fragment), heparin-induced fibrillization, ThT fluorescence; series mostly up to 57.4 µM
How it was run: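 Tau K18 P301L fragment (15 uM unlabeled plus 0.24 uM Alexa 594-labeled) in 100 mM sodium acetate pH 7 with compound, fibrillization induced by 20 uM heparin for 6 hr at 37 C. Thioflavin T (30 uM) added, fluorescence read after 1 hr (ex 450, em 510 nm).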
Potency means the concentration at half of the fitted maximal effect; tags describe the fitted curve by direction and shape.

UniProt P10636, sequence (P10636 whole entry, looked up): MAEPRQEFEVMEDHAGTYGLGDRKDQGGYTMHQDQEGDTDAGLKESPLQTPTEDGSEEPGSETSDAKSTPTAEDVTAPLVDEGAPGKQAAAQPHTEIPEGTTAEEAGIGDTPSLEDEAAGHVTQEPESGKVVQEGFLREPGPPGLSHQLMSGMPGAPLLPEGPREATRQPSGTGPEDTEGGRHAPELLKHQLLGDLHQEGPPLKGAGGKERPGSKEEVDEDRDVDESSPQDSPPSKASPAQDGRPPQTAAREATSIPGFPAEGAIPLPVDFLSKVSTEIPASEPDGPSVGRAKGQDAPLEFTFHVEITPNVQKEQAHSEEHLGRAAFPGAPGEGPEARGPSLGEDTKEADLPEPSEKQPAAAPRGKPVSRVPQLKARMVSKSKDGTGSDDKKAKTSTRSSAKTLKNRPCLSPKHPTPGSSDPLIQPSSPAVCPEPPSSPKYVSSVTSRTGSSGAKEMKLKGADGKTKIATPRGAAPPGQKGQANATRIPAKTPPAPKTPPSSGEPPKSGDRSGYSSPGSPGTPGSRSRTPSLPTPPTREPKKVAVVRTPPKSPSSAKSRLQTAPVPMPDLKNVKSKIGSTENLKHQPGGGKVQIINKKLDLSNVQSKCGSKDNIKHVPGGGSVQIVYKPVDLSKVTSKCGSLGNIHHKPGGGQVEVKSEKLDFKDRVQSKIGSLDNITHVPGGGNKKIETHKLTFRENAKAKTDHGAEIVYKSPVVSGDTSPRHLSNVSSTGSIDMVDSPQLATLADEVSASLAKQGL

| SMILES | Potency |
| --- | --- |
| COc1cccc(CC(=O)Nc2ccc3nc(Nc4cccc(C(F)(F)F)c4)cc(C)c3c2)c1 | inconclusive: 14.1 µM [inhibitor, partial curve, poor fit] |
| COc1ccc(NC(=O)C(c2cc3c(cc2[N+](=O)[O-])OCO3)N(C)C)cc1 (stereo not drawn) | inconclusive: 17.8 µM [inhibitor, single point] |
| N#CC1=C(N)Oc2cc(N)ccc2C1c1ccc(F)cc1 (stereo not drawn) | inconclusive: 39.8 µM [inhibitor, single point] |
| Cc1cc(=O)oc2cc(OCC3CC(c4ccc(Cl)cc4)=NO3)ccc12 (stereo not drawn) | inconclusive: 0.316 µM [inhibitor, full curve] |
| Cc1nc2ccccn2c1C(=O)N/N=C/c1cc(C)n(-c2ccc(Cl)cc2)c1C | inconclusive: 14.1 µM [inhibitor, partial curve] |
| O=[N+]([O-])c1ccc(N2CCN(S(=O)(=O)c3ccc4ccccc4c3)CC2)cc1NCc1ccco1 | inactive |
| Cc1ccc2c(c1)C(=O)C1(O)CCN(c3ccccc3)C1=N2 (stereo not drawn) | active: 7.94 µM |
| CC1=C(C(=O)OC(C)C)C(c2coc3ccccc3c2=O)C2=C(CCCC2=O)N1 (stereo not drawn) | inactive |
| C/C=C/C=C/C(=O)Nc1nccs1 | inactive |
| Cc1ccc(C(C)C)c(OCc2nn(CC(=O)c3ccc(Cl)cc3)c3[n+]2CCCCC3)c1 | inconclusive: 22.4 µM [inhibitor, partial curve] |
| C=CCn1c(SCc2ccc(C(=O)O)cc2)nc2sc(C)c(C)c2c1=O | inactive |
| COc1ccccc1COn1c(=O)c(-c2ccco2)[n+]([O-])c2ccccc21 | inconclusive: 28.2 µM [inhibitor, single point] |
| Cc1ccc(Cl)cc1NC(=O)Cn1c(SCC(=O)NCc2ccccc2)nc2ccccc21 | inactive |
| Cn1c(=O)c(Nc2ccc(O)cc2)c2c3c(cccc31)C(=O)c1ccccc1-2 | active: 7.94 µM |
| O=C(CN(Cc1ccco1)C(=O)Cn1nnc(-c2ccc(F)cc2)n1)NC1CCCC1 | inactive |
| CN1CCN(NC(=O)c2cccc3ccccc23)CC1 | inactive |
| CC1(C)CC(=O)c2sc(NC(=O)CCS(=O)(=O)c3ccccc3)nc2C1 | inconclusive: 31.6 µM [inhibitor, single point] |
| Cc1ccc(C2c3c(oc4ccccc4c3=O)C(=O)N2c2nnc(C(C)C)s2)o1 (stereo not drawn) | inactive |
| COCCn1c(C)cc(C2=NNC(=NC(C)(C)C)SC2)c1C | inconclusive: 25.1 µM [inhibitor, single point] |
| O=[N+]([O-])c1ccccc1C1Nc2cccc3cccc(c23)N1 | inconclusive: 3.16 µM [inhibitor, full curve] |
| COCCCNC(=O)c1ccc(-n2c(-c3ccccc3)cc3c2CCCCC3)cc1 | inactive |
| O=C(NCc1ccccc1)c1nc(-c2ccc(Cl)cc2)n2c1CCCCC2 | inactive |
| Cc1n[nH]c(=O)nc1NCc1ccccc1 | inactive |
| COc1cccc(C(=O)O/N=C(\N)c2ccc([N+](=O)[O-])cc2)c1 | inconclusive: 5.01 µM [inhibitor, partial curve] |
| Cc1[nH]c2ccccc2c1CCNC(=O)c1c(N)no[n+]1[O-] | inconclusive: 11.2 µM [inhibitor, partial curve] |

| SMILES | Potency |
| --- | --- |
| N#Cc1c(-c2ccco2)cc(-c2ccc(F)cc2)nc1N | inconclusive: 15.8 µM [inhibitor, partial curve] |
| COc1ccccc1/C=C/C=C1N=C(/C=C/c2ccc(Cl)cc2)OC/1=O | active: 12.6 µM |
| Cc1cc(Br)c(OCc2ccc(C(=O)N/N=C3\CC4CC=CC34)cc2)c(Br)c1 (stereo not drawn) | inconclusive: 14.1 µM [inhibitor, partial curve] |
| Cc1nc(N/N=C/c2ccccn2)sc1C | inconclusive: 11.2 µM [inhibitor, partial curve] |
| COC(=O)c1cc2sccc2n1CC(=O)Nc1ccc(C)cc1C | inactive |
| CCN(CC)CCNc1cc(C)nc2c1C(=O)C(=O)C=C2N1CCCCC1 | active: 8.91 µM |
| COc1cc2c(cc1OC)C(COc1ccc3c(C)cc(=O)oc3c1)N(C(=O)Cc1ccccc1)CC2 (stereo not drawn) | inactive |
| Cc1csc(Nc2cccc3ccccc23)n1 | inconclusive: 14.1 µM [inhibitor, partial curve] |
| O=[N+]([O-])c1cc(C(F)(F)F)ccc1N1CCC(O)CC1 | inconclusive: 44.7 µM [inhibitor, single point] |
| O=C1CCSc2ccc(Cl)cc2N1Cc1ccc(Cl)cc1 | inconclusive: 39.8 µM [inhibitor, partial curve] |
| COCCNC(=S)N/N=C(\C)c1ccc(Cl)s1 | inactive |
| CCOC(=O)N1CCC(N2Cc3cccc(C(=O)Nc4ccc(CC)cc4)c3C2=O)CC1 | inconclusive: 12.6 µM [inhibitor, partial curve] |
| COc1ccc(C(=O)Nc2ccc3c4c(cccc24)CC3)cc1 | inconclusive: 14.1 µM [inhibitor, partial curve] |
| O=C(COCC(=O)Nc1cccc(C(F)(F)F)c1)Nc1cccc(C(F)(F)F)c1 | inactive |
| O=c1c(-n2cncn2)c[nH]n1-c1cccc(Cl)n1 | inconclusive: 35.5 µM [inhibitor, single point] |
| COc1ccc(-n2c(CCc3ccccc3)nnc2SCC(=O)c2ccccc2)cc1 | inconclusive: 11.2 µM [inhibitor, partial curve] |
| Cc1ccc(C(=O)CSc2ncnc3ccccc23)o1 | inconclusive: 17.8 µM [inhibitor, partial curve] |
| O=C(NCc1ccc(Cl)cc1)c1ccc2c(c1)NC(=O)C(CS(=O)(=O)Cc1ccc(F)cc1Cl)N2 (stereo not drawn) | inconclusive: 8.91 µM [inhibitor, partial curve] |
| O=C(COC(=O)c1ccc(Br)o1)Nc1nc2ccccc2s1 | inconclusive: 22.4 µM [inhibitor, single point] |
| Cc1ccc(NC(=S)C2=C(O)c3sccc3N(C)S2(=O)=O)cc1 | inconclusive: 14.1 µM [inhibitor, partial curve] |
| Cc1ccc(NC(=O)Cn2nnc(C(=O)NCCc3ccccc3)c2N)cc1 | inactive |
| CN1CCC(=NNC(=O)COc2ccc(Cl)cc2)CC1 | inconclusive: 35.5 µM [inhibitor, single point] |
| Cc1nn(-c2ccccc2)c(N2CCCC2)c1/C=N/NC(=O)c1cc(-c2cccnc2)nc2ccccc12 | inconclusive: 31.6 µM [inhibitor, partial curve] |
| COc1c(C)cc(Br)cc1C(=O)Nc1ccc(N2CCN(S(C)(=O)=O)CC2)cc1 | inconclusive: 0.708 µM [inhibitor, full curve] |
| Cc1nc(C)c(C(=O)C2=C(O)C(=O)N(CCCN(C)C)C2c2ccco2)s1 (stereo not drawn) | inactive |

| SMILES | Potency |
| --- | --- |
| Cc1ccc(-c2nnc3ccccc3c2C(=O)Nc2ccc(C)c(F)c2)cc1 | inactive |
| COc1ccccc1C(=O)Nc1nnc(S(=O)(=O)N2CCN(c3ccc(F)cc3)CC2)s1 | inconclusive: 4.47 µM [inhibitor, full curve] |
| CCOC(=O)c1ccc(NC(=O)c2sc3ccccc3c2Cl)cc1 | inconclusive: 0.631 µM [inhibitor, full curve] |
| Cc1ccnc(SCc2cc(=O)c(OC(=O)c3cccs3)co2)n1 | inconclusive: 17.8 µM [inhibitor, partial curve] |
| CC(=O)c1ccc(NC(=O)COC(=O)c2ccccc2Sc2ccccc2C#N)cc1 | inactive |
| COc1ccc(NC(=O)Nc2cccs2)cc1OC | active: 15.8 µM |
| CCC1C(O)=C(c2ccccn2)C(=N)N1c1ccccc1 (stereo not drawn) | inactive |
| Cn1cccc1CC(=O)N/N=C/c1cccc2ccccc12 | inconclusive: 31.6 µM [inhibitor, partial curve] |
| O=C1NC(=S)S/C1=C\c1ccc(SCc2ccco2)o1 | active: 4.47 µM |
| COc1cc2c(cc1OC)-c1cc(Nc3ccc4c(c3)OCCO4)nc(=O)n1CC2 | inconclusive: 7.94 µM [inhibitor, partial curve] |
| Cc1ccc(Nc2c(-c3ccc(N4CCOCC4)cc3)nc3cccc(C)n23)cc1 | inconclusive: 5.62 µM [inhibitor, partial curve] |
| CCOC(=O)c1c(C)[nH]c(C)c1C(=O)CSc1nc2ccccc2c(=O)n1-c1ccc(Cl)cc1 | inactive |
| CCOC(=O)c1c(NC(=O)c2ccccc2C)sc2c1CC(C)(C)OC2 | inconclusive: 39.8 µM [inhibitor, single point] |
| COc1cccc(/C=N/NC(=O)c2csc(-n3nc(C)cc3C(F)(F)F)n2)c1 | inconclusive: 1 µM [inhibitor, full curve, poor fit] |
| Cc1ccc(C)c(Cn2c(=O)cc(C(F)(F)F)c3c(C)nn(C)c32)c1 | inactive |
| COc1ccc(Cl)cc1NC(=O)CCn1c(=O)c2cccn2c2ccccc21 | inactive |
| Cc1ccc(N2CCN(S(=O)(=O)N3CCCCC3)CC2)c(C)c1 | inconclusive: 28.2 µM [inhibitor, partial curve, poor fit] |
| CN1CCSc2ccc(C(=O)Nc3cc(F)ccc3F)cc21 | inconclusive: 17.8 µM [inhibitor, partial curve] |
| NC(=O)c1c(NC(=O)c2cc(-c3ccc(F)cc3)on2)sc2c1CCCC2 | active: 31.6 µM |
| COc1cc(/C=N/Nc2nc3ccccc3[nH]2)cc(OC)c1O | active: 11.2 µM |
| C/C=C/C(=O)N1CC2(CC(c3cccc(NC(=O)CCCCC)c3)=NO2)C[C@H]1C(N)=O (stereo partly drawn) | inactive |
| COc1c(-c2ccc(O)cc2)oc2cc(O)cc(O)c2c1=O | inactive |
| Cc1nc(C(=O)N2CCc3c([nH]c4ccccc34)C2c2ccccn2)cs1 (stereo not drawn) | inconclusive: 11.2 µM [inhibitor, partial curve] |
